Variants at the background level are over-represented here.
B1: glmS ribozyme (parent)
chain: AUAAAAGCGCCAGAACUACAGAAAUGUAGUUGACGAGGAGGAGGUUUAUCGAAUUUUCGGCGGAUGCCUCCAAA

What was measured:
Conditions in all cases: with glucosamine-6-phosphate
[1] = variants of: B1; test: self-cleavage kobs at 40 uM GlcN6P; higher = faster cleavage; RNA array
How it was run: (§1)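 The measurements used barcoded ribozyme variants on sequenced MiSeq chips, transcribed in situ by E. coli RNA polymerase and tracked at 37 °C with a hybridised Cy3 probe. Glucosamine-6-phosphate, 40 μM to 10 mM in HEPES/KCl/Mg(OAc)2 buffer, was flowed in while tiles were imaged over ~14 h. Baseline-normalised signals, also normalised to non-cleaving reference variants, gave per-tile medians that were fit to one- or two-exponential decays for kobs. kcat and KM resulted from weighted Michaelis–Menten fits across concentrations.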

[2] = variants of: B1; test: self-cleavage kobs at 640 uM GlcN6P; higher = faster cleavage; RNA array
How it was run: as §1

[3] = variants of: B1; test: self-cleavage kobs at 160 uM GlcN6P; higher = faster cleavage; RNA array
How it was run: as §1

[4] = variants of: B1; test: self-cleavage kobs at 2500 uM GlcN6P; higher = faster cleavage; RNA array
How it was run: as §1

[5] = variants of: B1; test: self-cleavage kobs at 10000 uM GlcN6P; higher = faster cleavage; RNA array
How it was run: as §1

[6] = variants of: B1; test: kcat; higher = faster cleavage; RNA array
How it was run: as §1

Variant | self-cleavage kobs at 40 uM GlcN6P [1] [s⁻¹] | self-cleavage kobs at 640 uM GlcN6P [2] [s⁻¹] | self-cleavage kobs at 160 uM GlcN6P [3] [s⁻¹] | self-cleavage kobs at 2500 uM GlcN6P [4] [s⁻¹] | self-cleavage kobs at 10000 uM GlcN6P [5] [s⁻¹] | kcat [6] [s⁻¹]
G7A A64U | < 1e-05 | < 1e-05 | < 1e-05 | < 1e-05 | < 1e-05 | –
A4U C10A A48C G59U U65C | < 1e-05 | < 1e-05 | – | < 1e-05 | – | –
C8G A33C | < 1e-05 | < 1e-05 | < 1e-05 | < 1e-05 | < 1e-05 | –
G51U C71U | – | < 1e-05 | – | – | – | < 1e-05
G7A C11A A36G G37A | < 1e-05 | – | – | – | < 1e-05 | –
G7A A14C G32U G40A | < 1e-05 | – | – | < 1e-05 | – | –
A6G C10G | < 1e-05 | < 1e-05 | < 1e-05 | < 1e-05 | < 1e-05 | –
A6G G29U G41C A42C A48C C61A C67G | < 1e-05 | – | – | < 1e-05 | < 1e-05 | –
C8U A48C | < 1e-05 | < 1e-05 | – | – | < 1e-05 | –
C8G G29A | < 1e-05 | < 1e-05 | < 1e-05 | < 1e-05 | – | –
C11G U55A C71G | < 1e-05 | – | – | – | < 1e-05 | < 1e-05
A6U C16A U30G G38A U55A | < 1e-05 | – | – | – | – | –
C8G G35U | < 1e-05 | < 1e-05 | < 1e-05 | < 1e-05 | < 1e-05 | –
G7C G62A | – | < 1e-05 | – | < 1e-05 | < 1e-05 | < 1e-05
G9C G35A | < 1e-05 | < 1e-05 | < 1e-05 | – | < 1e-05 | –
A6U C8U | < 1e-05 | – | – | – | – | –
C8A G9A G13A G41U G44A U49G A52G G60C A64U | < 1e-05 | – | – | – | < 1e-05 | –
C8G U56G | < 1e-05 | < 1e-05 | < 1e-05 | < 1e-05 | – | –
C16G C50A | < 1e-05 | – | – | – | – | < 1e-05
A6G C8G | < 1e-05 | – | < 1e-05 | – | – | –
G9C G41U | < 1e-05 | < 1e-05 | < 1e-05 | < 1e-05 | < 1e-05 | –
G7U A15C U30G | < 1e-05 | – | – | – | – | –
A6G G35U A64C U69G | < 1e-05 | < 1e-05 | – | – | < 1e-05 | –

Variant | self-cleavage kobs at 40 uM GlcN6P [1] [s⁻¹] | self-cleavage kobs at 640 uM GlcN6P [2] [s⁻¹] | self-cleavage kobs at 160 uM GlcN6P [3] [s⁻¹] | self-cleavage kobs at 2500 uM GlcN6P [4] [s⁻¹] | self-cleavage kobs at 10000 uM GlcN6P [5] [s⁻¹] | kcat [6] [s⁻¹]
C8G C16G U46G U56C | < 1e-05 | – | – | < 1e-05 | < 1e-05 | –
G7A G51A | < 1e-05 | – | – | < 1e-05 | – | –
G9C C50U | < 1e-05 | < 1e-05 | < 1e-05 | – | < 1e-05 | –
A6U G13C G63U A64G | < 1e-05 | – | – | – | – | –
A6C G59C | < 1e-05 | < 1e-05 | – | < 1e-05 | < 1e-05 | –
A14G U31C G62U U65G G66A | – | – | < 1e-05 | < 1e-05 | < 1e-05 | < 1e-05
G38A A39C | – | – | – | – | – | < 1e-05
A6U U57G | < 1e-05 | – | – | – | – | –
A6C U65A | < 1e-05 | – | < 1e-05 | – | – | –
G7U C11A C16A G41A | < 1e-05 | – | – | – | – | –
G41C U65C | < 1e-05 | < 1e-05 | – | – | – | < 1e-05
G37A C68G | – | – | – | – | – | < 1e-05
G7C G51U | < 1e-05 | < 1e-05 | < 1e-05 | < 1e-05 | < 1e-05 | –
G35A A36U | < 1e-05 | – | < 1e-05 | – | – | < 1e-05
G7C U45G C61U G62C A64G | < 1e-05 | < 1e-05 | < 1e-05 | < 1e-05 | < 1e-05 | –
C10A A53U | < 1e-05 | < 1e-05 | – | – | – | < 1e-05
C8A A48C G59U | < 1e-05 | – | – | – | < 1e-05 | –
C16G G62A | < 1e-05 | – | – | – | < 1e-05 | < 1e-05
A33C G37C U69A | < 1e-05 | – | – | – | – | < 1e-05
G63U A64C G66C | – | – | – | – | < 1e-05 | < 1e-05
A15G G38A | – | – | – | – | – | < 1e-05
G37U A64G | < 1e-05 | – | – | – | – | < 1e-05
